Laboratory results taken from the supplement of paper PMC11876631.
± gives the standard deviation of the averaged measurements. Laboratory Escherichia coli strains with one amino-acid change in an essential protein, pooled on minimal glucose agar with carbenicillin or gentamicin at twice the control MIC (plus kanamycin and chloramphenicol for the plasmids), 48 h. Fold change of barcode share against drug-free plates; higher = less susceptible. Active = above 20 in both replicates (the paper's putatively resistant). '<' = one read or none on drug, '>' = one read or none on a drug-free plate. Shares are relative, so most strains fall below 1 when a few take over. Listed are strains with at least 15 reads on both drug-free plates, and hits; most hits rest on fewer reference reads. Replicate rank correlation about 0.5. Edits are read from barcodes.

Target: Escherichia coli (laboratory strain)
Test: barcode share on antibiotic plates over drug-free plates; higher = less susceptible
Protocol: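 A pool of E. coli strains, each edited to carry one amino-acid change in an essential protein, was grown for 48 h on minimal glucose agar with or without antibiotic; strain barcodes were sequenced; mean of two replicates.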

[1] = antibiotic: carbenicillin, 2× MIC (3.1 µg/mL)
[2] = antibiotic: gentamicin, 2× MIC (MIC 0.45 µg/mL)

B1: mreB F85D (protein)
chain: MLKKFRGMFSNDLSIDLGTANTLIYVKGQGIVLNEPSVVAIRQDRAGSPKSVAAVGHDAKQMLGRTPGNIAAIRPMKDGVIADFDVTEKMLQHFIKQVHSNSFMRPSPRVLVCVPVGATQVERRAIRESAQGAGAREVFLIEEPMAAAIGAGLPVSEATGSMVVDIGGGTTEVAVISLNGVVYSSSVRIGGDRFDEAIINYVRRNYGSLIGEATAERIKHEIGSAYPGDEVREIEVRGRNLAEGVPRGFTLNSNEILEALQEPLTGIVSAVMVALEQCPPELASDISERGMVLTGGGALLRNLDRLLMEETGIPVVVAEDPLTCVARGGGKALEMIDMHGGDLFSEE
- fold change of barcode share [1]: 0.281 ± 0.07
- fold change of barcode share [2]: 0.0892 ± 0.12

B2: mreB F85P (protein)
chain: MLKKFRGMFSNDLSIDLGTANTLIYVKGQGIVLNEPSVVAIRQDRAGSPKSVAAVGHDAKQMLGRTPGNIAAIRPMKDGVIADFPVTEKMLQHFIKQVHSNSFMRPSPRVLVCVPVGATQVERRAIRESAQGAGAREVFLIEEPMAAAIGAGLPVSEATGSMVVDIGGGTTEVAVISLNGVVYSSSVRIGGDRFDEAIINYVRRNYGSLIGEATAERIKHEIGSAYPGDEVREIEVRGRNLAEGVPRGFTLNSNEILEALQEPLTGIVSAVMVALEQCPPELASDISERGMVLTGGGALLRNLDRLLMEETGIPVVVAEDPLTCVARGGGKALEMIDMHGGDLFSEE
- fold change of barcode share [1]: 0.176 ± 0.13

B3: mreB V164A (protein)
chain: MLKKFRGMFSNDLSIDLGTANTLIYVKGQGIVLNEPSVVAIRQDRAGSPKSVAAVGHDAKQMLGRTPGNIAAIRPMKDGVIADFFVTEKMLQHFIKQVHSNSFMRPSPRVLVCVPVGATQVERRAIRESAQGAGAREVFLIEEPMAAAIGAGLPVSEATGSMVADIGGGTTEVAVISLNGVVYSSSVRIGGDRFDEAIINYVRRNYGSLIGEATAERIKHEIGSAYPGDEVREIEVRGRNLAEGVPRGFTLNSNEILEALQEPLTGIVSAVMVALEQCPPELASDISERGMVLTGGGALLRNLDRLLMEETGIPVVVAEDPLTCVARGGGKALEMIDMHGGDLFSEE
- fold change of barcode share [1]: 0.21 ± 0.12
- fold change of barcode share [2]: < 0.0144

B4: mreB V164Q (protein)
chain: MLKKFRGMFSNDLSIDLGTANTLIYVKGQGIVLNEPSVVAIRQDRAGSPKSVAAVGHDAKQMLGRTPGNIAAIRPMKDGVIADFFVTEKMLQHFIKQVHSNSFMRPSPRVLVCVPVGATQVERRAIRESAQGAGAREVFLIEEPMAAAIGAGLPVSEATGSMVQDIGGGTTEVAVISLNGVVYSSSVRIGGDRFDEAIINYVRRNYGSLIGEATAERIKHEIGSAYPGDEVREIEVRGRNLAEGVPRGFTLNSNEILEALQEPLTGIVSAVMVALEQCPPELASDISERGMVLTGGGALLRNLDRLLMEETGIPVVVAEDPLTCVARGGGKALEMIDMHGGDLFSEE
- fold change of barcode share [1]: 0.213 ± 0.035
- fold change of barcode share [2]: < 0.00859

B5: mreB I176A (protein)
chain: MLKKFRGMFSNDLSIDLGTANTLIYVKGQGIVLNEPSVVAIRQDRAGSPKSVAAVGHDAKQMLGRTPGNIAAIRPMKDGVIADFFVTEKMLQHFIKQVHSNSFMRPSPRVLVCVPVGATQVERRAIRESAQGAGAREVFLIEEPMAAAIGAGLPVSEATGSMVVDIGGGTTEVAVASLNGVVYSSSVRIGGDRFDEAIINYVRRNYGSLIGEATAERIKHEIGSAYPGDEVREIEVRGRNLAEGVPRGFTLNSNEILEALQEPLTGIVSAVMVALEQCPPELASDISERGMVLTGGGALLRNLDRLLMEETGIPVVVAEDPLTCVARGGGKALEMIDMHGGDLFSEE
- fold change of barcode share [1]: 0.116 ± 0.062
- fold change of barcode share [2]: 0.0122 ± 0.0086

B6: mreB V268A (protein)
chain: MLKKFRGMFSNDLSIDLGTANTLIYVKGQGIVLNEPSVVAIRQDRAGSPKSVAAVGHDAKQMLGRTPGNIAAIRPMKDGVIADFFVTEKMLQHFIKQVHSNSFMRPSPRVLVCVPVGATQVERRAIRESAQGAGAREVFLIEEPMAAAIGAGLPVSEATGSMVVDIGGGTTEVAVISLNGVVYSSSVRIGGDRFDEAIINYVRRNYGSLIGEATAERIKHEIGSAYPGDEVREIEVRGRNLAEGVPRGFTLNSNEILEALQEPLTGIASAVMVALEQCPPELASDISERGMVLTGGGALLRNLDRLLMEETGIPVVVAEDPLTCVARGGGKALEMIDMHGGDLFSEE
- fold change of barcode share [1]: 0.249 ± 0.087
- fold change of barcode share [2]: < 0.00271

B7: mreB V268W (protein)
chain: MLKKFRGMFSNDLSIDLGTANTLIYVKGQGIVLNEPSVVAIRQDRAGSPKSVAAVGHDAKQMLGRTPGNIAAIRPMKDGVIADFFVTEKMLQHFIKQVHSNSFMRPSPRVLVCVPVGATQVERRAIRESAQGAGAREVFLIEEPMAAAIGAGLPVSEATGSMVVDIGGGTTEVAVISLNGVVYSSSVRIGGDRFDEAIINYVRRNYGSLIGEATAERIKHEIGSAYPGDEVREIEVRGRNLAEGVPRGFTLNSNEILEALQEPLTGIWSAVMVALEQCPPELASDISERGMVLTGGGALLRNLDRLLMEETGIPVVVAEDPLTCVARGGGKALEMIDMHGGDLFSEE
- fold change of barcode share [1]: 0.387 ± 0.2
- fold change of barcode share [2]: 0.00566 ± 0.0055
